# In a compilation of properties of binary mixtures (doi:10.1016/j.molliq.2017.02.011):
# The densities may have been worked out from excess volumes.
# Assay: xn = mol fraction of the nth substance listed
# Conditions: 100 kPa
structure (smiles),measurement,setting,value
O=C1CCCCC1 + CCCC[n+]1ccn(C)c1C.F[B-](F)(F)F,mass density,"298.15 K, x2 = 0",942.9 kg/m3
same,mass density,"308.15 K, x2 = 0",933.2 kg/m3
CCCC[n+]1ccn(C)c1C.F[B-](F)(F)F + O=C1CCCCC1,mass density,"293.15 K, x1 = 0.0834",957.9 kg/m3
same,mass density,"293.15 K, x1 = 0.1328",967.9 kg/m3
same,mass density,"293.15 K, x1 = 0.1764",977.6 kg/m3
same,mass density,"293.15 K, x1 = 0.2258",994.2 kg/m3
same,mass density,"293.15 K, x1 = 0.2675",1009.7 kg/m3
same,mass density,"293.15 K, x1 = 0.3094",1026.1 kg/m3
same,mass density,"293.15 K, x1 = 0.3824",1055.5 kg/m3
same,mass density,"293.15 K, x1 = 0.4755",1092.4 kg/m3
same,mass density,"293.15 K, x1 = 0.5276",1111.7 kg/m3
same,mass density,"293.15 K, x1 = 0.5649",1124.6 kg/m3
same,mass density,"293.15 K, x1 = 0.6063",1137.9 kg/m3
same,mass density,"293.15 K, x1 = 0.6451",1149.3 kg/m3
same,mass density,"293.15 K, x1 = 0.7419",1172.3 kg/m3
same,mass density,"293.15 K, x1 = 0.8527",1188.4 kg/m3
same,mass density,"293.15 K, x1 = 0.9134",1192.3 kg/m3
same,mass density,"293.15 K, x1 = 1",1193.5 kg/m3
same,mass density,"298.15 K, x1 = 0.0834",954.1 kg/m3
same,mass density,"298.15 K, x1 = 0.1328",965.3 kg/m3
same,mass density,"298.15 K, x1 = 0.1764",976.7 kg/m3
same,mass density,"298.15 K, x1 = 0.2675",1008.8 kg/m3
same,mass density,"298.15 K, x1 = 0.3824",1054.3 kg/m3
same,mass density,"298.15 K, x1 = 0.4755",1091.7 kg/m3
same,mass density,"298.15 K, x1 = 0.5276",1110.9 kg/m3
same,mass density,"298.15 K, x1 = 0.5649",1123.8 kg/m3
same,mass density,"298.15 K, x1 = 0.6063",1137.1 kg/m3
same,mass density,"298.15 K, x1 = 0.6451",1148.5 kg/m3
same,mass density,"298.15 K, x1 = 0.6947",1161.6 kg/m3
same,mass density,"298.15 K, x1 = 0.7419",1171.8 kg/m3
same,mass density,"298.15 K, x1 = 0.7994",1181.4 kg/m3
same,mass density,"298.15 K, x1 = 0.8527",1187.7 kg/m3
same,mass density,"298.15 K, x1 = 1",1191.8 kg/m3
same,mass density,"303.15 K, x1 = 0.0834",951.5 kg/m3
same,mass density,"303.15 K, x1 = 0.1328",963.3 kg/m3
same,mass density,"303.15 K, x1 = 0.1764",975.5 kg/m3
same,mass density,"303.15 K, x1 = 0.2258",992.4 kg/m3
same,mass density,"303.15 K, x1 = 0.2675",1007.6 kg/m3
same,mass density,"303.15 K, x1 = 0.3094",1024.2 kg/m3
same,mass density,"303.15 K, x1 = 0.4368",1075.6 kg/m3
same,mass density,"303.15 K, x1 = 0.5276",1110 kg/m3
same,mass density,"303.15 K, x1 = 0.5649",1123 kg/m3
same,mass density,"303.15 K, x1 = 0.6063",1136.2 kg/m3
same,mass density,"303.15 K, x1 = 0.6947",1160.4 kg/m3
same,mass density,"303.15 K, x1 = 0.7419",1170.3 kg/m3
same,mass density,"303.15 K, x1 = 0.8527",1185.9 kg/m3
same,mass density,"303.15 K, x1 = 0.9134",1188.9 kg/m3
same,mass density,"303.15 K, x1 = 1",1189.7 kg/m3
same,mass density,"308.15 K, x1 = 0.0834",949.1 kg/m3
same,mass density,"308.15 K, x1 = 0.1764",974.6 kg/m3
same,mass density,"308.15 K, x1 = 0.2258",991.3 kg/m3
same,mass density,"308.15 K, x1 = 0.2675",1006.1 kg/m3
same,mass density,"308.15 K, x1 = 0.3094",1023.3 kg/m3
same,mass density,"308.15 K, x1 = 0.3824",1052 kg/m3
same,mass density,"308.15 K, x1 = 0.4368",1074.8 kg/m3
same,mass density,"308.15 K, x1 = 0.4755",1090 kg/m3
same,mass density,"308.15 K, x1 = 0.5276",1109.2 kg/m3
same,mass density,"308.15 K, x1 = 0.5649",1122 kg/m3
same,mass density,"308.15 K, x1 = 0.6063",1135.7 kg/m3
same,mass density,"308.15 K, x1 = 0.6451",1147.3 kg/m3
same,mass density,"308.15 K, x1 = 0.6947",1159.6 kg/m3
same,mass density,"308.15 K, x1 = 0.8527",1185.1 kg/m3
